# Measured values reported in PubChem BioAssay (NCATS).
# The inconclusive results got no clear call from the source; some entries with a clear call stand among them for comparison. For some of these results: Potencies of inconclusive entries are doubtful fits and often do not repeat. Calls of active or inactive are those of the source. Unless noted, calls follow the shape of the dose curve; as a rule, active = well fitted curve in the direction sought with a large enough effect; inconclusive = small, poorly fitted or top-dose-only effect, or another doubt; inactive = no such curve, though single readings can be large; an effect the other way counts as inactive or inconclusive.
# Assays:
# [1] = P-glycoprotein substrates identified in KB-8-5-11 adenocarcinoma cell line, qHTS therapeutic library screen (AID 1346987); also: potency is read from the fitted curve at half-maximal effect; nearly all actives have a fitted effect of over 65% in size
# Method in brief: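 In this qHTS, P-gp-rich KB-8-5-11 cells received library compounds across a concentration range. Viability was quantified by luminescence after 72 h at 37 degree C.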
# [2] = test system: Zika virus NS2B-NS3 protease (unlinked complex); assay: Primary screen GU Rhodamine qHTS for Zika virus inhibitors: Unlinked NS2B-NS3 protease assay (AID 1347159); also: nearly all actives have a fitted effect of over 60% in size; also: potency is read from the fitted curve at half-maximal effect; as to activity change, negative = inhibition: % is scaled to controls: 0 for no effect and ±100 for the full control effect
# Method in brief: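 Enzyme 25 nM in Tris-HCl pH 8.0 + 0.01% Tween 20; compounds up to 114 microM, 15 min RT dark; + Rhod110 substrate 1.5 microM; read t0 and 15 min; delta fluorescence → % inhibition → 4-parameter Hill fit.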
# [3] = test system: Zika virus NS2B-NS3 protease (linked construct); assay: Primary screen NINDS Rhodamine qHTS for Zika virus inhibitors (AID 1347160); details: activity change, negative = inhibition: at 57.1 µM (top of the series) unless noted; also: nearly all actives have a fitted effect of over 55% in size; also: potency is read from the fitted curve at half-maximal effect; as to activity change, negative = inhibition: % is scaled to controls: 0 for no effect and ±100 for the full control effect
# Method in brief: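 Enzyme (25 nM, linked NS2B-NS3) was preincubated 15 min with compound in 10 mM Tris-HCl pH 8.0, 0.01% Tween 20. Rhodamine110 substrate (1.5 microM) was then added and fluorescence read at start and after 15 min.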
# [4] = molecular target: Cytochrome P450 2D6 (Homo sapiens) (UniProt P10635); assay: Cytochrome P450 family 2 subfamily D member 6 (CYP2D6) small molecule antagonists: luciferase biochemical (cell-free) qHTS assay (AID 1645840; active = well fitted curve in the direction sought with a large enough effect in the repeat runs; inconclusive = weak or mixed curves; inactive = no such curve, though single readings can be large; an effect the other way counts as inactive or inconclusive; also: potency is read from the fitted curve at half-maximal effect; nearly all actives have a fitted effect of over 55% in size)
# Method in brief: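 P450-Glo CYP2D6 system: proluciferin substrate converted by enzyme to luciferin, read by luminescence proportional to activity. Enzyme-substrate mix with compound 10 min at room temperature, then NADPH regeneration 1 h before detection reagent.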
# [5] = Primary qHTS for inhibitors of nuclear receptor binding SET domain protein 2 (NSD2) in an isogenic RCH-ACV NSD2 p.E1099K mutant (9B) (AID 1645876); also: potency is read from the fitted curve at half-maximal effect; nearly all actives have a fitted effect of over 70% in size
# [6] = Primary qHTS for inhibitors of nuclear receptor binding SET domain protein 2 (NSD2) in an RCH-ACV wild type WT cells (2C) (AID 1645877); details: activity change, negative = cell killing: at 44.9 µM (top of the series) unless noted; also: potency is read from the fitted curve at half-maximal effect; nearly all actives have a fitted effect of over 70% in size
# HEK293 = assay: Cytotoxic Profiling of Annotated Libraries Using Quantitative High-Throughput Screening (AID 1296008); details: Five cell lines viability, CellTiter-Glo ATP luminescence, 48-72 h; max response: active compounds read low; also: nearly all actives have a fitted effect of over 60% in size; also: potency is read from the fitted curve at half-maximal effect
# Method in brief: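 Cells exposed to compounds for 48 or 72 hr at 37 degrees Celsius. Viability read as ATP-coupled luminescence with CellTiter-Glo after 10 min at room temperature.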
# PA-1 = assay: Primary qHTS to identify gynecologic anti-cancer compounds using libraries of approved drugs and bioactive compounds (AID 1345084); details: Gynecologic cancer cell panel viability, ATPlite luminescence, 48 h; series mostly up to 57.5 µM; also: nearly all actives have a fitted effect of over 55% in size; also: potency is read from the fitted curve at half-maximal effect; as to activity change, negative = cytotoxicity: % is scaled to controls: 0 for no effect and ±100 for the full control effect
# Method in brief: (§1)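 Five-point cytotoxicity, 48 h drug exposure at 37 C, 5% CO2, on cells seeded 16 h beforehand. ATP content read by ATPlite luminescence.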
# SKOV3 = assay: as above; details: Gynecologic cancer cell panel viability, ATPlite luminescence, 48 h; series mostly up to 57.5 µM
# Method in brief: as §1
# Tov-21-G = assay: as above; details: Gynecologic cancer cell panel viability, ATPlite luminescence, 48 h; activity change, negative = cytotoxicity: at 57.5 µM (top of the series) unless noted
# Method in brief: as §1
# [7] = Primary fluorescence-based thiol-reactive (MSTI) qHTS assay for identification of artifact compounds. (AID 1845221);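 also: thiol-reactive compounds lower the probe fluorescence signal; nearly all actives have a fitted effect of over 65% in size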
# Method in brief: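 Thiol-reactive compounds detected by quenching of 4 uM MSTI fluorescence (525/598 nm) after 1 h room-temperature dark incubation in PBS pH 7.4, 2% DMSO. qHTS titration; percent inhibition Hill-fitted against Acetyl-MSTI/MSTI controls.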
# OV90 = assay: Primary qHTS to identify gynecologic anti-cancer compounds using libraries of approved drugs and bioactive compounds (AID 1345084); details: Gynecologic cancer cell panel viability, ATPlite luminescence, 48 h; series mostly up to 57.5 µM; also: nearly all actives have a fitted effect of over 55% in size; also: potency is read from the fitted curve at half-maximal effect; as to activity change, negative = cytotoxicity: % is scaled to controls: 0 for no effect and ±100 for the full control effect
# Method in brief: as §1
# [8] = Tertiary RLuc qRT-PCR qHTS assay for Zika virus inhibitors (AID 1347169)
# Method in brief: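 Vero, 1,000 cells/well, o/n 37 C; cpd pinned in DMSO; ZIKV-RLuc Cambodian, MOI 1-2, 48-72 h 37 C; live-cell RLuc substrate, lum read at 1-1.5 h.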
# [9] = qHTS to identify inhibitors of the type 1 interferon - major histocompatibility complex class I in skeletal muscle: primary screen against the NCATS Mechanism Interrogation Plate v5.0 (MIPE) Libary (AID 1347411); details: iHSKM cells + IFN-b, HiBiT-tagged MHC-I luminescence, 24 h; activity change, negative = inhibition: at 45.8 µM (top of the series);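 also: plate controls were vehicle for no effect and reference inhibitor for full effect; nearly all actives have a fitted effect of over 65% in size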
# Method in brief: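 HLA-B HiBit myoblasts, dexamethasone-free medium + 4 ng/ml IFN-b, 24 h compound, 11-pt 1:3 from 46 uM final. Readout: Nano-Glo HiBiT lytic luminescence after 10 min lysis, RT.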
# [10] = Primary redox qHTS assay for identification of artifact compounds. (AID 1845223); details: Amplex Red/HRP redox cycling with DTT, fluorescence; redox activity (% of DA3003): at 53.8 µM (top of the series);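 also: 0% = DMSO and 100% = reference compound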
# Method in brief: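 Redox-cycling detection via DTT (250 uM final) oxidation coupled to Amplex Red (25 uM)/HRP (250 mU/mL) in HBSS. 15 min preincubation plus 30 min after DTT, room temperature. Ex/Em 525/598 nm; 4-parameter Hill fit against DMSO and 10 uM DA3003.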
# [11] = molecular target: Phospholipid hydroperoxide glutathione peroxidase GPX4 (Homo sapiens) (UniProt P36969); assay: Primary qHTS Assay for Inhibitors of Recombinant Selenoprotein Glutathione Peroxidase 4 (GPX4) (AID 1845192); also: % is scaled to controls: 0 for no effect and ±100 for the full control effect; nearly all actives have a fitted effect of over 65% in size
# Method in brief: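 Steps: GPX4 plus compound, 30 min RT; add GR/GSH/NADPH master mix; start with cumene hydroperoxide; read 340/450 nm fluorescence at 0 and 15 min. Finals were 200 nM GPX4, 1 mM GSH, 0.5 mM CHP, 0.5 mM NADPH, 100 nM GR.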
# Tags tell the direction and shape of the fitted curve.
# Sequence of UniProt P10635 (P10635 whole entry, looked up): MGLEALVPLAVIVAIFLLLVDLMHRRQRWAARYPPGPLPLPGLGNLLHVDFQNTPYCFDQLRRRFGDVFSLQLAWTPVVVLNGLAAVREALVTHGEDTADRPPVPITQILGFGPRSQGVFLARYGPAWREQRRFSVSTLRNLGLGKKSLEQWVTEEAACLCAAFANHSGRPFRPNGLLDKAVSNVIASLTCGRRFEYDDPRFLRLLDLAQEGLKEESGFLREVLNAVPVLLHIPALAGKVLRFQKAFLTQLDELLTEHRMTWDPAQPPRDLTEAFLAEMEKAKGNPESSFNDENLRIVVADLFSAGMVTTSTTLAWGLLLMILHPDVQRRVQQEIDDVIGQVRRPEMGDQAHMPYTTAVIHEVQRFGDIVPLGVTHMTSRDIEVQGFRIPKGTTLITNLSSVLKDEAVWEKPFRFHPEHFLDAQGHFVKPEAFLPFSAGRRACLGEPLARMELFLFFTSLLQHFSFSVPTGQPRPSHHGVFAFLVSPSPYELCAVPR
# Sequence of UniProt P36969 (P36969 whole entry, looked up): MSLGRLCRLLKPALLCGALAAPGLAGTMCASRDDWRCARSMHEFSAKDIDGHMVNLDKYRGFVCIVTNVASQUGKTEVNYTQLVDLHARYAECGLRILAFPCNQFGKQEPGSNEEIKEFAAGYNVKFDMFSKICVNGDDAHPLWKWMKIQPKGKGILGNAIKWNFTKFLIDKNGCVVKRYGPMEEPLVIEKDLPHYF
compound,measurement,setting,value
CCCOc1ccc(S(=O)(=O)N2CCN(CCO)CC2)cc1-c1nc2c(CCC)cn(CC)c2c(=O)[nH]1,Potency,[1],"inconclusive: 14.6 µM [inhibitor, partial curve]"
same,Potency,[2],inactive
same,Potency,[3],inactive
same,Potency,[4],"inconclusive: 37.9 µM [inhibitor, single point]"
same,Potency,[5],"inconclusive: 16.3 µM [inhibitor, single point]"
same,Potency,[6],"inconclusive: 29 µM [inhibitor, single point]"
same,Potency,HEK293,"inconclusive: 29.1 µM [inhibitor, single point]"
same,Potency,PA-1,"inconclusive: 22.4 µM [rising, single point]"
same,Potency,SKOV3,inactive
COc1c(C)cc(NC(=O)c2nn(Cc3ccc(F)cc3)c3c2CN(C(=O)c2ccc[nH]2)C[C@]3(C)C(N)=O)cc1C,Potency,[1],"inconclusive: 2.19 µM [inhibitor, partial curve]"
same,Potency,[3],inactive
same,Potency,[5],"inconclusive: 7.05 µM [inhibitor, partial curve, poor fit]"
same,Potency,[6],"inconclusive: 4.35 µM [inhibitor, single point]"
same,Potency,HEK293,"inconclusive: 6.93 µM [inhibitor, single point]"
same,"activity change, negative = cytotoxicity",PA-1,inactive: 15.5% [at 11.6 µM]
same,"activity change, negative = cytotoxicity",SKOV3,inactive: -24.2% [at 11.6 µM]
same,"activity change, negative = cytotoxicity",Tov-21-G,inactive: 11.9% [at 11.6 µM]
C=C1C(OC(C)=O)CCC2(C)CCC(C(C)(C)O)CC12 (centres undefined),Potency,[7],inactive
same,max response,HEK293,inactive: -1.52%
same,Potency,OV90,"inconclusive: 39.8 µM [cytotoxic, single point]"
same,Potency,SKOV3,inactive
Cc1ccccc1-n1nc(-c2c(-c3ccc(F)cc3)nn3c2NC[C@@H](CO)C3)ccc1=O,Potency,[3],"inconclusive: 5.62 µM [inhibitor, full curve]"
same,Potency,[8],"inconclusive: 73.9 nM [inhibitor, full curve, poor fit]"
same,Potency,[9],inactive
same,Potency,[5],"inconclusive: 0.0058 µM [inhibitor, full curve, poor fit]"
same,Potency,[6],"inconclusive: 0.103 µM [inhibitor, partial curve, poor fit]"
same,Potency,[10],inactive
same,max response,HEK293,inactive: -7.72%
same,Potency,OV90,inactive
CC(C)c1noc(C2CCN(c3ncnc(Nc4ccc(S(C)(=O)=O)cc4F)c3[N+](=O)[O-])CC2)n1,Potency,[2],"inconclusive: 14.1 µM [inhibitor, partial curve, poor fit]"
same,Potency,[11],inactive
same,Potency,HEK293,"inconclusive: 18.4 µM [inhibitor, partial curve]"
same,Potency,OV90,inactive
same,Potency,SKOV3,"inconclusive: 10 µM [rising, partial curve, poor fit]"
